# The other results are listed elsewhere or left out. Viral Rep nickase domains cut single-stranded DNA in vitro (3 µM enzyme, 1 h, 37 °C); shown is the middle of each 90-letter strand. The score is log2 (uncut reads / reads without enzyme); more negative means more cut, near 0 not cut, and no call is made. The scaling is to total reads, so uncut sequences can rise above 0 when many others are cut.
# System: T1, Rep nickase domain of Muscovy duck circovirus
# T1 sequence (residues 1-111, tag not shown): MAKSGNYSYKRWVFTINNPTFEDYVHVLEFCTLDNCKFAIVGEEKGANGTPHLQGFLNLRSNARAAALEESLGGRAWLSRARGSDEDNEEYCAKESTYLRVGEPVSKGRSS
# Assay: uncleaved DNA left, log2 of reads against the no-enzyme library (log2 ratio); higher = less cleavage (more negative = more Rep cleavage of the k-mer); sequences stand for … in CTCGTCCG…ACCGGAGA
# Procedure: (§1)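 A pool of 90-nt single-stranded DNAs with seven random bases just before the constant AC of the nick site (name = the seven bases) was cut by 3 µM recombinant His6-SUMO-tagged Rep nickase domain (300 nM DNA, 50 mM HEPES pH 8.0, 50 mM NaCl, 1 mM MnCl2, 1 h, 37 °C, three replicates). Uncut DNA was amplified and sequenced.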
row,Sequence,uncleaved DNA left (log2)
1,TGGGTCT,-0.0866
2,ATAGGTG,0.0892
3,TCTTAGA,0.0647
4,AGGACTC,-0.0616
5,CGGACTT,0.119
6,CCCTGTG,0.00342
7,TCGCGTA,0.0458
8,AATACGT,-0.0903
9,GAACAAG,0.123
10,TACTAAG,0.0381
11,TGTCCGC,-0.0107
12,AACCGTC,0.0122
13,TCAGCAA,-0.106
14,AATTAAG,0.0383
15,TCGATCG,-0.00267
16,CTGTGCA,0.168
17,CCTTCGT,0.166
18,TTGGGAC,-0.0498
19,GTCCCCA,0.0455
20,CTGGTCT,0.0226

row,Sequence,uncleaved DNA left (log2)
1,TCAATTT,-0.0985
2,GCCTCTT,-0.815
3,TCAGGAG,0.0314
4,TGCGTAT,0.0157
5,GGCTCTT,-0.44
6,AGGACAG,0.113
7,ATCACCG,0.0567
8,TTCCACT,-0.0262
9,AATAGGA,0.0733
10,TCCGGGT,0.0477
11,ACGAATC,-0.079
12,AAAGTTA,0.023
13,TGGTTAG,0.0925
14,CCATCTA,0.0255
15,TACTGCG,-0.0535
16,CAGAGAA,-0.0475
17,GCGCCAG,-0.115
18,ACTTAAT,-1.34
19,CCTCGTC,0.0237
20,TAAAGTA,0.0219

# System: T2, Rep nickase domain of banana bunchy top virus
# T2 sequence (residues 1-94, tag not shown): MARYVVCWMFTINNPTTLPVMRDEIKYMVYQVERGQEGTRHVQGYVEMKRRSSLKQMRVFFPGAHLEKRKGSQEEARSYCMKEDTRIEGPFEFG
# Assay: as above
# Procedure: as §1
row,Sequence,uncleaved DNA left (log2)
1,TGGGTCT,-0.0466
2,ATAGGTG,-0.093
3,TCTTAGA,-0.0205
4,AGGACTC,-0.0671
5,CGGACTT,-0.00664
6,CCCTGTG,-0.0295
7,TCGCGTA,-0.0339
8,AATACGT,-0.0549
9,GAACAAG,0.132
10,TACTAAG,0.11
11,TGTCCGC,-0.0773
12,AACCGTC,-0.0615
13,TCAGCAA,0.0623
14,AATTAAG,-0.0631
15,TCGATCG,0.053
16,CTGTGCA,0.0312
17,CCTTCGT,-0.0238
18,TTGGGAC,0.00902
19,GTCCCCA,0.00662
20,CTGGTCT,-0.0652

row,Sequence,uncleaved DNA left (log2)
1,TCAATTT,-0.0978
2,GCCTCTT,-0.0876
3,TCAGGAG,0.0129
4,TGCGTAT,-0.146
5,GGCTCTT,-0.0503
6,AGGACAG,0.104
7,ATCACCG,-0.0734
8,TTCCACT,-0.0323
9,AATAGGA,0.0806
10,TCCGGGT,0.00742
11,ACGAATC,0.00666
12,AAAGTTA,0.0393
13,TGGTTAG,0.128
14,CCATCTA,0.096
15,TACTGCG,-0.0373
16,CAGAGAA,-0.095
17,GCGCCAG,0.124
18,ACTTAAT,-0.388
19,CCTCGTC,-0.0847
20,TAAAGTA,-0.0489

# System: T3, Rep nickase domain of cabbage leaf curl virus
# T3 sequence (residues 1-116, tag not shown): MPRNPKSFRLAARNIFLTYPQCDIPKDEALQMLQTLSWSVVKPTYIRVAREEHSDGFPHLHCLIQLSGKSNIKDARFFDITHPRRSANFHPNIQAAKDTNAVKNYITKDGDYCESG
# Assay: as above
# Procedure: as §1
row,Sequence,uncleaved DNA left (log2)
1,TGGGTCT,0.666
2,ATAGGTG,-0.259
3,TCTTAGA,0.0596
4,AGGACTC,0.469
5,CGGACTT,0.662
6,CCCTGTG,-0.72
7,TCGCGTA,-0.599
8,AATACGT,0.187
9,GAACAAG,-0.393
10,TACTAAG,-0.772
11,TGTCCGC,0.0293
12,AACCGTC,-0.0521
13,TCAGCAA,-0.0904
14,AATTAAG,-0.783
15,TCGATCG,-0.83
16,CTGTGCA,-0.386
17,CCTTCGT,-0.414
18,TTGGGAC,0.804
19,GTCCCCA,0.214
20,CTGGTCT,0.0304

row,Sequence,uncleaved DNA left (log2)
1,TCAATTT,-0.27
2,GCCTCTT,0.106
3,TCAGGAG,-0.0183
4,TGCGTAT,-0.496
5,GGCTCTT,0.364
6,AGGACAG,0.67
7,ATCACCG,-0.87
8,TTCCACT,0.136
9,AATAGGA,0.176
10,TCCGGGT,0.363
11,ACGAATC,-0.0194
12,AAAGTTA,-0.332
13,TGGTTAG,-0.591
14,CCATCTA,-0.149
15,TACTGCG,-0.182
16,CAGAGAA,-0.0342
17,GCGCCAG,0.0913
18,ACTTAAT,-0.267
19,CCTCGTC,-0.222
20,TAAAGTA,-2.13
